Results taken from the supplement of paper PMC4996465.
Viability of KB3-1 and Nalm-6 cells after 48 h of drug alone (CellTiter-Glo), 11 doses over about 4.5 log units. % of DMSO wells, lower = more cell loss; AC50 from the fitted curve, lower = more potent. No active / inactive call. Nalm-6 was screened in two runs. AC50 is listed only for well-fitted inhibitory curves. KB3-1 is a HeLa-derived carcinoma line, Nalm-6 a B-cell precursor leukaemia line.

Assays:
KB3-1 = experiment: viability (% of DMSO control); higher = more viable cells
Method: (§1)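 Eleven-dose screen of the NCATS MIPE 3 library on cells without co-treatment; CellTiter-Glo after 48 h, as % of DMSO wells.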

Nalm-6 [1] = experiment: as above
Method: as §1

Nalm-6 [2] = experiment: log AC50 of viability decrease (48 h) (log10 M); higher = less potent
Method: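 Eleven-dose screen of the NCATS MIPE 3 library on cells without co-treatment; CellTiter-Glo after 48 h. AC50 from the curve fit; only inhibitory curves of the better fit classes are listed.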

| Structure (SMILES) | viability (KB3-1; 0.00078 µM) | viability (KB3-1; 0.00234 µM) | viability (KB3-1; 0.00702 µM) | viability (KB3-1; 0.0211 µM) | viability (KB3-1; 0.0632 µM) | viability (KB3-1; 0.19 µM) | viability (KB3-1; 0.569 µM) | viability (KB3-1; 1.71 µM) | viability (KB3-1; 5.12 µM) | viability (KB3-1; 15.4 µM) | viability (KB3-1; 46.1 µM) | viability (Nalm-6 [1]; run: 1, 0.00078 µM) | viability (Nalm-6 [1]; run: 1, 0.00234 µM) | viability (Nalm-6 [1]; run: 1, 0.00702 µM) | viability (Nalm-6 [1]; run: 1, 0.0211 µM) | viability (Nalm-6 [1]; run: 1, 0.0632 µM) | viability (Nalm-6 [1]; run: 1, 0.19 µM) | viability (Nalm-6 [1]; run: 1, 0.569 µM) | viability (Nalm-6 [1]; run: 1, 1.71 µM) | viability (Nalm-6 [1]; run: 1, 5.12 µM) | viability (Nalm-6 [1]; run: 1, 15.4 µM) | viability (Nalm-6 [1]; run: 1, 46.1 µM) | viability (Nalm-6 [1]; run: 2, 0.00078 µM) | viability (Nalm-6 [1]; run: 2, 0.00234 µM) | viability (Nalm-6 [1]; run: 2, 0.00702 µM) | viability (Nalm-6 [1]; run: 2, 0.0211 µM) | viability (Nalm-6 [1]; run: 2, 0.0632 µM) | viability (Nalm-6 [1]; run: 2, 0.19 µM) | viability (Nalm-6 [1]; run: 2, 0.569 µM) | viability (Nalm-6 [1]; run: 2, 1.71 µM) | viability (Nalm-6 [1]; run: 2, 5.12 µM) | viability (Nalm-6 [1]; run: 2, 15.4 µM) | viability (Nalm-6 [1]; run: 2, 46.1 µM) | log AC50 of viability decrease (Nalm-6 [2]; run: 1) | log AC50 of viability decrease (Nalm-6 [2]; run: 2) |
| --- | --- | --- | --- | --- | --- | --- | --- | --- | --- | --- | --- | --- | --- | --- | --- | --- | --- | --- | --- | --- | --- | --- | --- | --- | --- | --- | --- | --- | --- | --- | --- | --- | --- | --- | --- |
| O=C(Oc1ccc([N+](=O)[O-])cc1)N1CCC(C(O)(c2ccc3c(c2)OCO3)c2ccc3c(c2)OCO3)CC1 [JZL-184] | 114% | 105% | 97.5% | 105% | 105% | 107% | 106% | 105% | 103% | 106% | 102% | 128% | 124% | 109% | 128% | 119% | 128% | 119% | 114% | 111% | 102% | 85.3% | 102% | 109% | 110% | 105% | 107% | 106% | 87.4% | 53.7% | 61.3% | 27.7% | 5.22% | -4.73 | -5.28 |
| NC(CO)(CO)CCc1ccc(Sc2cccc(OCc3ccccc3)c2)cc1Cl [KRP 203] | 108% | 106% | 109% | 111% | 108% | 106% | 109% | 108% | 106% | 106% | 2.74% | 111% | 112% | 115% | 114% | 112% | 114% | 116% | 110% | 99.4% | 105% | 0.501% | 105% | 101% | 97.7% | 98.9% | 102% | 97.1% | 99.9% | 95% | 92.2% | 78.5% | 1.04% |  | -4.63 |
| O=C/1\C=C(/OC(=C1)/C2=C3SC4=C(SC3=CC=C2)C=CC=C4)N5CCOCC5 [KU-0064] | 92.4% | 93.3% | 94.7% | 90.4% | 94.8% | 96.1% | 95.9% | 94.7% | 98.2% | 96.4% | 52.6% | 99.4% | 111% | 117% | 107% | 110% | 112% | 111% | 105% | 108% | 96.7% | 2.81% | 103% | 110% | 119% | 115% | 107% | 121% | 121% | 121% | 117% | 107% | 4.39% | -4.58 |  |
| CS(=O)(=O)CCNCc1ccc(-c2ccc3ncnc(Nc4ccc(OCc5cccc(F)c5)c(Cl)c4)c3c2)o1 [Lapatinib] | 106% | 109% | 105% | 111% | 110% | 104% | 103% | 107% | 97.4% | 96.3% | 3.5% | 128% | 115% | 118% | 126% | 117% | 122% | 123% | 115% | 110% | 80.7% | -0.429% | 112% | 106% | 111% | 113% | 118% | 109% | 107% | 104% | 109% | 85.7% | 0.302% | -4.68 | -4.68 |
| COc1cc2nccc(Oc3ccc(NC(=O)NC4CC4)c(Cl)c3)c2cc1C(N)=O [Lenvatinib] | 106% | 105% | 98.1% | 103% | 104% | 101% | 101% | 98.7% | 101% | 96.4% | 59.3% | 118% | 114% | 110% | 115% | 118% | 112% | 113% | 106% | 96.3% | 93.4% | 43.6% | 107% | 104% | 107% | 102% | 106% | 103% | 98.3% | 106% | 96.7% | 99.7% | 46.2% | -4.68 |  |
| Cc1cccc(C#Cc2ccccc2)n1 [MPEP] | 102% | 106% | 103% | 97.4% | 100% | 94.4% | 92.2% | 102% | 95.9% | 93.4% | 85.5% | 95.8% | 107% | 102% | 107% | 102% | 85.3% | 69.5% | 63.1% | 62% | 61.5% | 53.4% | 101% | 100% | 106% | 106% | 109% | 103% | 104% | 104% | 103% | 105% | 97.3% | -6.58 |  |
| COc1cccc(OC)c1-c1cc(C(=O)NC2(C(=O)O)C3CC4CC(C3)CC2C4)nn1-c1ccnc2cc(Cl)ccc12 (stereo unspecified) [Meclinertant] | 105% | 104% | 103% | 107% | 101% | 101% | 101% | 98.8% | 100% | 88.8% | 75.5% | 116% | 122% | 124% | 121% | 133% | 121% | 114% | 116% | 115% | 95.9% | 33.7% | 108% | 108% | 103% | 108% | 101% | 103% | 99.6% | 100% | 93.1% | 85.3% | 21.8% | -4.68 | -4.53 |
